In PubChem BioAssay AID485344 (National Center for Advancing Translational Sciences (NCATS), 2010) one finds inhibition data, which are given here for 97 compounds.

About 6,900 (2%) of roughly 340,000 compounds were called active. No stated cut-off is given here; in the data, active means inhibition above about 30%; inactive means below that, where a call was filed. The entries are a selection whose mix differs from that of the whole data set. Entries without a call were filed so in the source.

In the assay the target is D(2) dopamine receptor (Homo sapiens) (UniProt P14416). The experiment in a line: HTS Assay for Allosteric Antagonists of the Human D2 Dopamine Receptor: Primary Screen for Antagonists. Further: 0% is about no effect. Particulars: HEK293 TREx D2 cells, calcium flux, dopamine EC80; at 10 µM; stronger effect = higher value. The method, boiled down: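 Compounds are added to dye-loaded, induced HEK293 T-REx cells coupled to calcium release via D2; after a 3 min kinetic read an EC80 dopamine stimulus is given and fluorescence is recorded for 3 more min.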
Chain of UniProt P14416 (P14416 whole entry, looked up): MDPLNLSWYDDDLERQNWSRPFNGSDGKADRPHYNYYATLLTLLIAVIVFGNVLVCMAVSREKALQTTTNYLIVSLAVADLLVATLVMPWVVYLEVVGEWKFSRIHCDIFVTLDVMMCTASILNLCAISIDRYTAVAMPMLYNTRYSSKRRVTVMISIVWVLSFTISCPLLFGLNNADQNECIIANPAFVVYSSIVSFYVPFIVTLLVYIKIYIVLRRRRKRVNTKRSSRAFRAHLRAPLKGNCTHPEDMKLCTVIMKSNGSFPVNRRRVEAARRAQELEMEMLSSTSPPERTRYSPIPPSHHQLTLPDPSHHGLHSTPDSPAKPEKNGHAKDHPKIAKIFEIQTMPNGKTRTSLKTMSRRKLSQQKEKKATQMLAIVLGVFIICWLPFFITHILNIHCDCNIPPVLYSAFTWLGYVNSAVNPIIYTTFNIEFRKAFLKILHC
Background: Calcium assays in cells follow changes in intracellular calcium, usually with a dye or a luminescent sensor.
Usually inhibition stands for the relative decrease from the control value, in per cent. Consider `O=C(NC1CCCC1)c1ccc2c(c1)N(Cc1ccccc1)C(=O)c1ccccc1S2`, for which the inhibition came out at 28.2%.
The value for `CC1CCN(c2nc3ccc(C(=O)NCc4ccccc4Cl)cc3s2)CC1` was 20.4%; that for `Cc1ccc(F)cc1NC(=O)Cn1c(C)cc(C)c(C#N)c1=O` was 1.82%; that for `COc1ccc(C2=C(N3CCN(c4cccc(C)c4)C(C)C3)c3ccccc3C2=O)cc1` (configuration not stated) was -8.27%.
The value for `CCCCC12CN3CC(C)(CN(C1)C3c1ccc(O)c(OC)c1)C2=O` (configuration not stated) was -3.05%; that for `COc1ccc(Cn2cc(C(=O)c3ccc(C)c(C)c3)c(=O)c3ccccc32)cc1` was 1.45%.
Then `CN(C)S(=O)(=O)c1cccc(NC(=S)NCc2ccc3c(c2)OCO3)c1`, with active: 51.6%; and `Cc1cccn2c(=O)c(C(=O)NCCc3ccccc3)cnc12`, with 2.26%; and `CCOc1ccc(CCNC(=O)c2cc(C)nc3c2c(C)nn3-c2cccc(F)c2)cc1`, with -4.99%.
For the compound `COc1ccc(CNCCC(c2ccc3c(c2)OCO3)c2ccccc2OC)cc1` (configuration not stated), the inhibition was -17.6%.
The value for `CCCN1C(=O)/C(=C/c2ccc(C)s2)NC1=S` was active: 31.4%; that for `COc1cccc(NC(=O)CSc2nccn2C2CCCC2)c1` was -11.8%.
`O=C(Cn1cc(S(=O)(=O)Cc2cccc(Cl)c2)c2ccccc21)Nc1ccccc1Cl`: the inhibition worked out at 12.7%.
As for `Cc1ccc(-n2nc3c(=O)n(CC(=O)NCCC(C)C)nc(C)c3c2C)cc1`, the inhibition was -3.81%.
On to `CC(CNC(=O)c1nnc(Cc2ccc(F)cc2)o1)c1ccccc1` (configuration not stated), for which the inhibition worked out at 0.381%.
As to `COc1cc2ncc(C(=O)c3ccc(C)cc3)c(N3CCCCC3)c2cc1OC`, the inhibition turned out to be 16%.
Then `COCCCNC(=O)Cn1c(=O)nc(-c2ccccc2)c2ccccc21`, with -12.7%; and `Cc1oc(-c2ccccc2Cl)nc1Cn1c(SCc2cccc(F)c2)nc2cccnc21`, with 4.44%; and `Cc1ccc(-n2c(=O)[nH]c3cc(C(=O)NCc4ccccc4)ccc3c2=O)cc1`, with 4.27%.
Consider `Cc1ccc(CCNS(=O)(=O)c2ccc3c(c2)CC(C)N3C(=O)C2CCC2)cc1` (configuration not stated), for which the inhibition came out at 1.86%.
As for `CC(=O)c1cccc(NC(=O)CC(c2ccc(C)cc2)N2Cc3ccccc3C2=O)c1` (configuration not stated), the inhibition was 16.7%.
Then `Cc1nc(-c2ccccc2)sc1-c1ccc(SCC(=O)NCc2ccc(Cl)cc2)nn1`, with -2.63%.
Regarding `Cc1cccc(OCC(=O)Nc2ccc(-c3nc4ccccc4o3)cc2)c1C`, the inhibition is -1.61%.
Then `CC(C)CNC(=O)N1[C@H](c2cccs2)[C@@H](C)C(=O)[C@@H](C)[C@@H]1c1cccs1`, with 18.6%.
Then `CCn1c(=N)n(CCOc2ccc(Br)cc2)c2ccccc21`, with -4.35%; and `COc1ccc(CC(=O)NCCc2csc(-c3cccc(C)c3)n2)cc1`, with -16.4%.
Then `CC(C)OCCCNC(=O)Cn1ccc2cc(S(=O)(=O)N3CCCCCC3)ccc21`, with -15%.
As to `COc1ccc(C)cc1NS(=O)(=O)c1c(C(=O)N2CCCCCC2)c(C)n(C)c1C`, the inhibition is -3.97%.
The value for `COc1ccc2cc(C(=O)NCc3ccc4c(c3)CCN4C(=O)c3ccc(F)cc3)[nH]c2c1` was 18.6%; that for `O=C(COCc1cc(-c2cccs2)on1)N1CCN(c2cccc(Cl)c2)CC1` was -19.7%.
Then `COc1cc(C)cc2oc(=O)c(CC(=O)NCCc3ccc(Cl)cc3)c(C)c12`, with 12.5%; and `O=C(CCn1c(=O)c2cccn2c2cccnc21)N1CCN(c2ccccc2F)CC1`, with 8.98%; and `CCN(C(=O)Nc1cn(CC(C)C)c(=O)c2ccccc12)c1cc(C)ccc1C`, with -14.4%.
Then `COc1ccccc1CN1C(=O)CN(C2CCCCCC2)C(=O)C1c1ccc(F)cc1` (configuration not stated), with -16.9%; and `Cc1c(Cl)cccc1NC(=O)C1CCN(c2ncnc3c2nc2n3CCCCC2)CC1`, with -0.346%; and `Cc1ccc2nc(Nc3ccc(C)c(F)c3)c3nncn3c2c1`, with 7.35%.
Take `Cc1ccc(CNC(=O)CCn2cnc3ccccc3c2=O)cc1`: the inhibition was found to be 2.27%.
`CCn1nc(C)c(CCN(C)C(=O)Nc2cc(OC)c(OC)c(OC)c2)c1C`: the inhibition is 14.5%.
Then `Cc1ccc(N2CC(NC(=O)c3ccc(S(=O)(=O)N4CCOCC4)cc3)CC2=O)cc1` (configuration not stated), with -19.7%.
With `CCOC(=O)c1cnn(-c2ccc(C(=O)Nc3cccc(C(C)=O)c3)cc2)c1N`, the inhibition was determined as 4.62%.
Then `CCOCCCNC(=O)CN1C(=O)COc2ccc(S(=O)(=O)N3CCCC3)cc21`, with 7.83%.
Then `CCOC(=O)c1c(C)[nH]c(C)c1S(=O)(=O)N1CCCC(C(=O)NCc2ccc(Cl)cc2)C1` (configuration not stated), with 2.38%; and `COc1ccccc1Nc1cc(C(=O)NC2CCC(C)CC2)c2ccccc2n1` (configuration not stated), with 22.3%; and `Cc1oc(-c2ccc(Cl)cc2)nc1CSc1nc2ncccc2[nH]1`, with 0.836%.
For the compound `O=C(Nc1ccc2oc(-c3ccncc3)nc2c1)c1ccccc1Cl`, the inhibition is -12%.
Then `CCc1ccccc1Nc1nn2c(=O)c3ccc(C(=O)NCCCOC(C)C)cc3nc2s1`, with -11.3%.
Consider `COc1cccc(NC(=O)c2ccc(-c3nc(COc4ccccc4)c(C)o3)cc2)c1`, for which the inhibition was 1.55%.
As to `CCOc1ccc(NC(=O)CC2C(=O)N(c3ccc(Cl)cc3)C(=O)N2Cc2cccs2)cc1` (configuration not stated), the inhibition came to 1.89%.
In the case of `O=C(OCc1cc(=O)n2nc(C3CCCCC3)sc2n1)c1ccc(F)cc1`, the inhibition is -5.98%.
As to `CCOc1ccc(-n2cc(-c3ccccc3)c3c(N4CCN(c5ccccc5OC)CC4)ncnc32)cc1`, the inhibition was 3.66%.
Then `CCOc1ccc(NC(=O)c2sc3nc4c(c(-c5ccc(OC)cc5)c3c2N)C(=O)CC(C)(C)C4)cc1`, with -2.08%; and `COC(=O)c1c(NC(=O)/C(C#N)=C/c2ccccc2)sc2c1CCC2`, with -7.09%.
Turning to `O=C(Nc1cccc(Cl)c1)c1ccc2c(c1)CCN2S(=O)(=O)c1ccccc1`, the inhibition was -14.6%.
The value for `CCCCN(CC)C(=O)CSc1c2c(nc3ccc(Cl)cc13)CCCC2` was -4.13%.
The value for `Cc1cccc(NC(=O)Cn2cc(C(=O)c3ccco3)c3ccccc32)c1` was -3.9%.
Regarding `Cc1ccc(CNC(=O)c2ccc(Cn3c(=O)c4ccccc4n(CC(=O)Nc4ccc(C)cc4)c3=O)cc2)cc1`, the inhibition turned out to be 0.496%.
Turning to `Cc1ccccc1OCCn1c(-c2ccc(Cl)cc2)nc2ccccc2c1=O`, the inhibition turned out to be 5.43%.
The value for `O=C(NC1(C(F)(F)F)C(=O)Nc2c1c(=O)[nH]c(=O)n2-c1ccc(Cl)cc1)c1ccccc1F` (configuration not stated) was 11.1%; that for `COc1ccc(Cn2cc(S(=O)(=O)c3ccc(Cl)cc3)c(=O)c3cc4c(cc32)OCO4)cc1` was 9.79%; that for `COc1cc(OC)c(NC(=O)CCc2c(C)nc3ncnn3c2C)cc1Cl` was 9.43%.
With `COc1ccc(-c2nc(CSCC(=O)NCCc3ccccc3)c(C)o2)cc1`, the inhibition was -24.6%.
Turning to `COc1ccc(C(NC(=O)CNC(C)=O)C(=O)Nc2ccc(C(C)C)cc2)cc1` (configuration not stated), the inhibition was active: 36.7%.
The value for `COc1cccc(N2CCN(C(=O)c3cc4cc5cc(C)ccc5nc4s3)CC2)c1` was 14.5%.
Take `CN(Cc1ccccc1)c1ccc(-c2nc(-c3ccccn3)no2)cc1[N+](=O)[O-]`: the inhibition was -1.04%.
Then `O=C(c1ccc(F)cc1)C1CCN(Cc2cn[nH]c2-c2ccccc2)CC1`, with active: 56%.
Then `Cc1cccc(NC(=O)CCn2cnnn2)c1C`, with -11.6%; and `CCC(=O)N1c2ccccc2CC1C(=O)NCc1ccccc1Cl` (configuration not stated), with -7.17%; and `O=C(CSCc1ccc(F)cc1)N1CCN(c2ccc(Cl)cc2)CC1`, with -1.11%.
Take `Cc1ccccc1N1CCN(CCCCN2C(=O)C3CCCN3C2=O)CC1` (configuration not stated): the inhibition was active: 58.9%.
The value for `Clc1ccc(CN2CCC(CNc3ncnc4onc(-c5ccc(Cl)cc5)c34)CC2)cc1` was -6.49%; that for `O=C(Cn1c(=O)n(-c2cccc(Cl)c2)c(=O)c2sc3ccccc3c21)NC1CCCCC1` was 0.898%; that for `COc1ccc2cc(-c3nc(Cl)c4c5c(sc4n3)CC(C)CC5)c(=O)oc2c1` (configuration not stated) was 2.54%.
Then `Cc1ccc(OCC(=O)Nc2cccc(-c3nc4ccccc4o3)c2C)cc1C`, with 12.4%.
As to `CNC(=O)C1CCC(Cn2c(=O)c3sccc3n(CC(=O)NCc3ccc(OC)cc3)c2=O)CC1` (configuration not stated), the inhibition worked out at 0.248%.
For the compound `COc1ccccc1NC(=O)c1c(NC(=O)COc2ccccc2)sc2c1CCCCC2`, the inhibition was -1.42%.
Regarding `O=C(c1ccc2c(c1)N(Cc1ccccc1F)C(=O)c1ccccc1S2(=O)=O)N1CCN(c2ccccc2F)CC1`, the inhibition was 2.69%.
In the case of `CCOc1ccc(C(=O)Nc2ccc3nn(-c4ccc(OC)c(Cl)c4)nc3c2)cc1`, the inhibition is -21.2%.
With `CCN(CC)C(=O)c1sc2c(c1C)c(=O)n(CCc1ccccc1)c(=O)n2Cc1ccc(F)cc1Cl`, the inhibition was 14.3%.
Then `Cc1cc2nc(-c3cccc(NC(=O)C(C)C)c3C)oc2cc1C`, with 6.73%.
The value for `CCc1c(C)nc(SCc2nc(-c3ccccc3)no2)[nH]c1=O` was 1.74%; that for `O=C(c1cc(-c2ccccc2O)on1)N1CCCCC1` was -5.1%.
Then `COc1cc(OC)c(OC)cc1/C=C/c1nc2cc3ccccc3cc2c(=O)n1-c1ccc(F)c(Cl)c1`, with -14.6%.
`O=C1Cc2cc(CCN3CCN(c4nsc5ccccc45)CC3)c(Cl)cc2N1`: the inhibition is active: 84.1%.
Turning to `COc1ccccc1CNC(=O)N[C@@H](Cc1ccccc1)C(=O)O`, the inhibition is active: 37%.
The value for `CCn1cc(S(=O)(=O)c2ccccc2)c(=O)c2cc(F)c(N3CCCC3)cc21` was 10.7%; that for `Cc1cc(C)cc(NS(=O)(=O)c2ccc3[nH]cc(C(=O)NC4CCCCC4)c(=O)c3c2)c1` was 2.67%.
For `OCCC1CN(Cc2cccc(-n3cccn3)c2)CCN1Cc1ccccc1` (configuration not stated), the inhibition was active: 57.8%.
Regarding `O=C(O)CC(NC(=O)C12CC3CC(CC(C3)C1)C2)c1cc([N+](=O)[O-])ccc1Cl` (configuration not stated), the inhibition was active: 72.3%.
With `Cc1ccc(Cl)cc1NC(=O)Cn1c(=O)n(Cc2ccccc2)c(=O)c2oc3ccccc3c21`, the inhibition is -1.21%.
Then `Cc1ccc(OCC(=O)Nc2cccc(OCc3cc(=O)n4cccc(C)c4n3)c2)cc1C`, with 8.38%; and `CCn1cc2c(n1)-c1c(oc(C(=O)Nc3cccc(C)c3C)c1C)CC2`, with 11.3%.
Then `Cc1ccc(CCNC(=O)CCCn2c(=O)c3ccccc3n(Cc3ccccc3C#N)c2=O)cc1`, with -17.3%.
On to `CN(C)S(=O)(=O)N1CCc2ccc(NC(=O)C3CCCO3)cc2C1` (configuration not stated), for which the inhibition is active: 31.3%.
Then `N#Cc1c(C(F)(F)F)cc(-c2cccs2)nc1SCC(=O)Nc1ccccc1F`, with -2.13%; and `Cc1cc(C)cc(NC(=O)CSc2oc(-c3ccccc3)nc2S(=O)(=O)c2ccccc2)c1`, with -4.55%.
Then `COc1ccc(NC(=O)NCCCN2CCc3ccccc3C2)cc1`, with active: 42.9%; and `Cc1cc(C)n(-c2nc3ccccc3nc2Nc2ccc(Cl)c(C(=O)OC(C)C)c2)n1`, with 2.17%.
